Source: PubChem BioAssay AID1963576 (National Center for Advancing Translational Sciences (NCATS), 2024)
Hit rate of the full screen: of about 46,000 compounds, about 60 (0.1%) were called active. Roughly 3% stayed inconclusive and do not appear here. Calls follow the shape of the dose curve; as a rule, active = well fitted inhibition curve with a large enough effect; inconclusive = small, poorly fitted or top-dose-only effect; inactive = no such curve, though single readings can be large or run the other way. Some of the results follow.

Test: Primary qHTS assay for Inhibitors of ovarian cancer metastasis using an organotypic tumor microenvironment (TME) model. Also: nearly all actives have a fitted effect of over 65% in size.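 As to activity change, negative = inhibition: plate controls were DMSO wells for no effect and tomatine positive control wells for full effect.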
Details: SKOV3ip1-GFP adhesion/invasion on 3D omental model, fluorescence; series mostly up to 45.8 µM; activity change, negative = inhibition: at the top concentration
Summary of the method: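 Adhesion/invasion was scored as fixed GFP-labeled SKOV3ip1 cell counts (488/509 nm), normalized to DMSO and tomatine controls. Cancer cells in serum-free medium, with four compound doses (0.36-46 umol/L), sat 2 hr at RT then 16 hr at 37 C on a 48 hr fibroblast/mesothelial/ECM culture.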

Activity change, negative = inhibition, inactive:
CCc1c(C)c(C#N)c2nc3ccccc3n2c1Nc1cccc(C(F)(F)F)c1 -6.69%
CC(C)c1ccc(NC(=O)Cn2c(=O)oc3cc(S(=O)(=O)N4CCCC4)ccc32)cc1 33.6%
CCc1ccc(NC(=O)c2ccc(F)c(S(=O)(=O)N3CCN(c4cc(C)ccc4C)CC3)c2)cc1 -3.12%
O=C(NCCCN1CCN(c2ccc(F)cc2)CC1)c1ccc2nc(CCc3ccccc3)oc2c1 -0.279%
Cc1noc(-c2ccc(-c3noc(-c4ccc(C(F)(F)F)cc4)n3)cc2)n1 5.37%
Cc1c(C(=O)NCc2ccccc2Br)oc2ccc3c(c12)C(=O)CC(C)(C)O3 9.49%
CCc1cccc(NC(=O)C(CC)n2nc(C)c3sc4ccccc4c3c2=O)c1 (centres undefined) -4.29%
Cc1ccc(C)c(S(=O)(=O)c2nnn3c2nc(N2CCCCC2)c2sccc23)c1 4.19%
CC(C)(C)OC(=O)N1CCC(c2c(C(=O)N3CCN(c4ncccn4)CC3)cnn2-c2cccc(F)c2)CC1 -2.69%
COc1ccc(NC(=O)CCc2nnc3n(CC(C)C)c(=O)c4ccccc4n23)cc1OC -7.31%
CN(C)CCNC(=O)Cn1nc(N2CCN(c3ccccc3)CC2)ccc1=O -3.7%
COc1cc2c(cc1OC)n(CC(=O)c1ccc(C)cc1)c(=O)n1nc(CCn3nc(C)cc3C)nc21 -8.9%
COc1ccc(NC(=O)c2ccc3c(c2)CCN3S(=O)(=O)c2ccccc2)cc1 -9.37%
COc1ccc(-c2cc(C(=O)Oc3cccc(C)c3C)c3ccccc3n2)cc1 3.37%
CC(=O)Nc1nonc1-c1nnc(SCc2ccccc2Cl)n1C 3.98%
Cc1ccc(O)c(NC(=O)COCc2cc(-c3ccco3)on2)c1 -8.82%
COc1cccc(CNC(=O)CSc2n[nH]c(-c3ccccc3Cl)n2)c1 -12.6%
CCc1ccc(CNC(=O)c2ccc3c(c2)nc2n3CCCCC2)cc1 1.01%
Fc1ccc(-n2ncc3c(N4CCN(Cc5ccccc5)CC4)ncnc32)cc1 6.2%
COC(=O)c1cc(OC)c(OC)cc1NC(=O)c1ccc2c(c1)CCN2S(=O)(=O)c1ccccc1 16.5%
CCOc1ccccc1CN1CCc2nc(Nc3ccccc3)ncc2C1 2.93%
Fc1ccccc1C1=NC(c2ccc(C(F)(F)F)cc2)=Nc2ccccc2N1 -6.55%
COc1ccccc1NC(=O)Cn1nc(C)n2cccc2c1=O -5.03%
O=C(c1ccc(F)cc1)n1nc(-c2ccc(Cl)cc2)nc1NCc1ccco1 -5.53%
Cc1ccc(CNC(=O)Cn2ccn(-c3cc(C)cc(C)c3)c(=O)c2=O)cc1 -1.95%
O=C(CSc1ccc2nnc(CCNS(=O)(=O)c3ccccc3)n2n1)Nc1ccccc1C(F)(F)F -0.0126%
CC(=O)N1c2ccc(S(=O)(=O)NCCC(=O)Nc3ccc(C)cc3Br)cc2CC1C (centres undefined) -7.69%
CCc1cccc(NC(=O)CN2c3ccccc3S(=O)(=O)c3ccccc32)c1 4.28%
O=C(Nc1c2c(nn1-c1ccc(Cl)cc1)CS(=O)(=O)C2)c1cccc(Cl)c1 -9.2%
Cc1ccc(N2CC(C(=O)NCc3nnnn3-c3ccc(C)c(C)c3)CC2=O)cc1 (centres undefined) 8.98%
COC(=O)c1ccc(Cn2c(SCC(=O)Nc3ccc(F)cc3)nc3ccccc32)cc1 1.02%
CCOc1ccc(-c2cc(NC(=O)Nc3ccccc3C(F)(F)F)c(C(=O)OC)s2)cc1 0.319%
CCCCOc1ccc(C(=O)Nc2ccc3c(c2)CCCN3S(=O)(=O)c2ccc(C)cc2)cc1 -3.11%
CCOc1ccc(NC(=O)Cn2c(=O)n(Cc3ccc(C(=O)NCc4ccc5c(c4)OCO5)cc3)c(=O)c3ccccc32)cc1 7.77%
CCCCN(CC)Cc1ccc(CNS(=O)(=O)c2cc3c(cc2Cl)NC(=O)CO3)o1 -5.91%
O=c1cc(N2CCOCC2)oc2c(-c3ccccc3)cccc12 -37.4%
CCOC(=O)c1c(C)oc2nc(C)nc(Nc3cc(C)ccc3OC)c12 0.955%
CCOc1ccccc1NC(=O)C1CCCN(S(=O)(=O)c2cn(C)cn2)C1 (centres undefined) -5.82%
COc1ccc(C(=O)Nc2ccccc2C(=O)OCc2cc(=O)n3nc(C4CC4)sc3n2)cc1 -7.13%
O=C(C1CCCCC1)N(Cc1cccnc1)c1nc2ccc(F)cc2s1 -2.76%
CCc1nnc(NC(=O)CSc2nc3c([nH]c4ccccc43)c(=O)n2-c2ccc(OC)cc2)s1 -5.68%
CCOC(=O)c1c(Nc2cccc(C)c2)nnc(-c2ccccc2)c1-c1ccccc1 -15.5%
Nc1nc(N)c(S(=O)(=O)c2ccccc2)c(Nc2ccc(F)cc2)n1 15.3%
CCOC(=O)N1CCC(NC(=O)c2ccc3c(c2)N(Cc2ccc(Cl)cc2)C(=O)c2ccccc2S3=O)CC1 (centres undefined) 35%
CCc1ccc2occ(CC(=O)N(Cc3ccc(N(C)C)cc3)C3CCS(=O)(=O)C3)c2c1 (centres undefined) 9.28%
COc1cc(-c2ccno2)ccc1S(=O)(=O)N1CCN(c2ccc(F)cc2)CC1 -2.87%
O=C(CSc1nc2ccccc2nc1Cc1ccccc1)N1CCCc2ccccc21 -9.92%
CCCc1cc(=O)[nH]c(Nc2ccc(O)cc2C)n1 -5.28%
Cc1cccc(C(=O)Nc2ccc(N3CCC(CCN4CCOCC4)CC3)c(C(=O)O)c2)c1 7.07%
O=C(Nc1ccc(S(=O)(=O)N2CCC(c3nc4ccccc4s3)CC2)cc1)c1ccccc1F 10.8%
CCOc1ccc(CNC(=O)CCn2cccn2)cc1OC 1.42%
CCCCCOc1ccc(C(=O)N(Cc2ccccc2)C2CCS(=O)(=O)C2)cc1 (centres undefined) 10.7%
CCOC(=O)c1nc(Nc2cccc(C)c2)c2ccccc2n1 0.329%
CCN(C(=O)NCc1noc2ccccc12)c1cc(C)ccc1C 1.66%
CCC(C(=O)NCCc1ccc(Cl)cc1)n1nc(C)c2c(C)n(-c3ccccc3)nc2c1=O (centres undefined) 2.86%
Cc1cc(NC(=O)CN(C)S(=O)(=O)c2ccc3c(c2)CCC(=O)N3)ccc1Br -5.34%
Cc1cccc(Cn2c(C)c(C)c3cc(C(=O)NCc4ccc(C)o4)ccc32)c1 -1.6%
CCOc1ccc(NC(=O)CN2C(=O)C(c3ccccc3)=NC23CCCCCC3)cc1 -6.65%
CCCCC12CN3CC(C)(CN(C1)C3c1c(C)[nH]c(=O)[nH]c1=O)C2=O (centres undefined) 4.14%
Cc1cccc(CS(=O)(=O)Cc2ccc(C(=O)NCc3ccc(Cl)cc3)o2)c1 -2.82%
COc1ccc(-c2cccc(NS(=O)(=O)c3cc(C)c(Cl)cc3C)c2)nn1 -4.25%
CCN(CCCNC(=O)c1nn(-c2ccc(OC)cc2)c(=O)c2c1c1ccccc1n2C)c1cccc(C)c1 1.32%
O=C(CSc1oc(-c2ccco2)nc1S(=O)(=O)c1ccc(Cl)cc1)c1ccccc1 -19.4%
COc1cccc(CSc2nc3n(n2)C(c2ccccc2C)C(C(=O)Nc2ccccc2OC)=C(C)N3)c1 (centres undefined) -2.09%
Cc1ccc(Nc2nccc(N(C)c3ccc4c(C)n(C)nc4c3)n2)cc1S(N)(=O)=O 34.6%
COC(=O)c1ccc(NC(=O)CC2C(=O)N(c3cccc(OC)c3)C(=O)N2Cc2cccc(OC)c2)cc1 (centres undefined) -5.26%
CCOc1ccc(CN2C(=O)c3ccccc3Sc3ccc(C(=O)NCc4ccc(C)cc4)cc32)cc1 -1.07%
Cc1nc2nc(SCC(=O)NC(C)c3ccccc3)nn2c(C)c1Cc1c(F)cccc1Cl (centres undefined) -2.22%
Cc1ccc(CCNC(=O)CCSCc2ccc(Cl)cc2)cc1 -6.27%
COCCCn1c(=N)c(C(=O)NC2CCCC2)cc2c(=O)n3ccccc3nc21 5.65%
CC(=O)Nc1ccc(NC(=O)CN2C(=O)CN(C)C(=O)c3ccccc32)cc1 9.36%
CC(C)Cc1nn2c(=O)cc(COC(=O)c3ccccc3NC(=O)c3ccccc3)nc2s1 -7.37%
CCOc1ccc(-n2c(SCc3nc(-c4ccccc4C)no3)nnc2-c2ccccc2)cc1 2.31%
CN(C)c1ccc(CNc2nc(-c3ccco3)nn2C(=O)c2cccc([N+](=O)[O-])c2)cc1 0.644%

outcome, inactive:
COc1ccc(Nc2nc(-c3ccccc3F)nc3ccccc23)cc1OC
COc1ccc(NC(=O)c2sc3nc4c(cc3c2N)CN(Cc2ccccc2)CC4)cc1OC
CCOc1ccc(CC(=O)NCc2ccc3c(c2)CCN3C(C)=O)cc1OCC
COc1ccc(OC)c(NC(=O)Cn2cc(C(=O)c3ccc(Cl)cc3)c(=O)c3cc(OC)ccc32)c1
COc1cccc(CNC(=O)CCNS(=O)(=O)c2ccc3c(c2)CCCC(=O)N3)c1
Cc1ccc(C)c(Cn2cnc3ccccc3c2=O)c1
COc1ccc(OC)c(CCNC(=O)CN2C(=O)COc3ccc(S(=O)(=O)N4CCCCCC4)cc32)c1
COc1ccc(CCN2C(=O)CN(C3CCCCCC3)C(=O)C2c2ccc(C)cc2)cc1OC (centres undefined)
O=C(NCc1ccccn1)c1nn(-c2ccccc2F)nc1CO
COc1ccc(OC)c(NC(=O)c2cc3cc4ccc(C)cc4nc3s2)c1
CC1=C(C(=O)Nc2ccccc2)C(c2cccs2)n2nc(SCc3ccccc3)nc2N1 (centres undefined)
CCOC(=O)N1CCc2c(sc3c2c(=O)n(-c2ccc(CC)cc2)c(=O)n3Cc2cc(C)ccc2C)C1
CCOc1ccc(NC(=O)Cn2c(=O)cc(C)c3c(C)nn(-c4ccc(CC)cc4)c32)cc1
Cn1ccc2cc(S(=O)(=O)N3CCN(C(=O)Nc4ccccc4F)CC3)ccc21
Cc1cccc(N(C)S(=O)(=O)c2nnc(NC(=O)C3CCCCC3)s2)c1
CCOC(=O)c1cccc(NC(=O)c2sc3nc[nH]c(=O)c3c2C)c1
Cc1cccc(C(CC(=O)NCC2(c3ccccc3)CCCC2)c2ccccc2)c1O (centres undefined)
CCOc1ccc(CCNC(=O)c2cc3c(-c4cccc(OC)c4)nn(C)c3s2)cc1OCC
Cc1ccc(-c2nc3c4cnn(-c5cc(Cl)ccc5Cl)c4ncn3n2)cc1
Cc1ccc(S(=O)(=O)c2nnn3c2nc(Nc2ccc(C(C)C)cc2)c2sccc23)cc1C
